# In paper PMC4336329 (PLoS ONE, 2015):
# The campaign covered roughly 310,000 compounds. About 14,000 (4.5%) showed an effect of 50% or more. The effect is printed as a negative number. This is one part of the list.
# Target: human ether-à-go-go-related gene (hERG) potassium channel (human, UniProt Q12809)
# Assay: primary screen, population patch clamp on CHO cells stably expressing hERG
# 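Further: peak tail current of the secondary pulse compared with the same well before compound.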
# Sequence of human ether-à-go-go-related gene (hERG) potassium channel (Q12809 whole entry, looked up): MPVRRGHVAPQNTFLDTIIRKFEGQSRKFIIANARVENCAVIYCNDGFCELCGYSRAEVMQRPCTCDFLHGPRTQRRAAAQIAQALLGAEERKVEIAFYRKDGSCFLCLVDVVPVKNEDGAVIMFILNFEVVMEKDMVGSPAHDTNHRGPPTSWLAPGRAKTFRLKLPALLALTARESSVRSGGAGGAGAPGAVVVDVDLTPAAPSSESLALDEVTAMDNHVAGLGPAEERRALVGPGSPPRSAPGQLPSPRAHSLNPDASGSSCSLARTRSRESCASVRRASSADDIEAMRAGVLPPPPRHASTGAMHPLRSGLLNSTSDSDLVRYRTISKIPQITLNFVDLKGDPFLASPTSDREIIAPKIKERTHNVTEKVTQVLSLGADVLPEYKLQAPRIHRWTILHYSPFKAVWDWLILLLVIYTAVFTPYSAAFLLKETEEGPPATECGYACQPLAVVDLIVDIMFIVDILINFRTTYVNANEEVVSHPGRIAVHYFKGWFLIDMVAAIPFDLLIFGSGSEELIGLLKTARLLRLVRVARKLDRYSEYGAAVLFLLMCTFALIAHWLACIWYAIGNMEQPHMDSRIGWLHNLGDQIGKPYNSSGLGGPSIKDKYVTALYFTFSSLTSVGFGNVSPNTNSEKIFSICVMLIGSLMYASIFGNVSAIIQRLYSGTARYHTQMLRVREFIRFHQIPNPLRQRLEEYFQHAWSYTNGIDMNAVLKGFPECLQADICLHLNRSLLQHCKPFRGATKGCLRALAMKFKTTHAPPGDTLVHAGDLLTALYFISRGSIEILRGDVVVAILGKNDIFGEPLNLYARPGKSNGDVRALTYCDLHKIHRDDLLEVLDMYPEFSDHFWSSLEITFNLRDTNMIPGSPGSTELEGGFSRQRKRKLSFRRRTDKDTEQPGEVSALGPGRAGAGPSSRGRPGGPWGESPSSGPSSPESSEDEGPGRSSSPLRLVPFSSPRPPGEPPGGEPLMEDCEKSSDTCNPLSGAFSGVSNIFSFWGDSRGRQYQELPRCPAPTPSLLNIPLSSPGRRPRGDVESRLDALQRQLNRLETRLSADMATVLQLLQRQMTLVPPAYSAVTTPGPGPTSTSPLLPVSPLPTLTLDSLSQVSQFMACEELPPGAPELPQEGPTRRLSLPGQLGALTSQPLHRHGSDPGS
row,SMILES,"hERG current change (%, negative = inhibition) at 10uM [%]"
1,CC1CC(C)CN(C(=O)c2ccc(N3CC4CC(C3)c3cccc(=O)n3C4)c([N+](=O)[O-])c2)C1 (centres unmarked),-16
2,Cc1ccc(C)c(NC(=O)C(OC(=O)c2ccc(C)s2)c2ccccc2)c1 (centres unmarked),-1.37
3,O=[N+]([O-])c1ccc(OCc2nnc(-c3ccccc3)o2)cc1,5.73
4,Oc1ccc(Br)cc1/C=N/Nc1ccccn1,18
5,Cc1cc(OCC(=O)Nc2ccccn2)c2c(C)cc(=O)oc2c1,10.5
6,O=C(CCSc1nc2ccccc2o1)N1CCOCC1,3.17
7,O=C(CC(c1ccccc1)c1ccccc1)Nc1ccc(O)cc1,11.5
8,O=C(COc1cccc2ccccc12)NNC(=O)[C@@H]1CCCC[C@@H]1C(=O)O,19.1
9,N#CC1=C(N)OC2=C(C(=O)CCC2)C1c1ccncc1 (centres unmarked),3.89
10,CCOC(=O)C(Cc1ccccc1)C(=O)Nc1ccc(N(CC)CC)cc1 (centres unmarked),2.88
11,CCCN=Cc1ccc(O)cc1,13.7
12,CC(OC(=O)C1CC(=O)N(Cc2ccccc2)C1)C(=O)Nc1ccccc1[N+](=O)[O-] (centres unmarked),-20
13,CCOC(=O)N1CCC(N2Cc3cccc(C(=O)N4CC(C)CC(C)C4)c3C2=O)CC1 (centres unmarked),6.31
14,O=C(CSCc1ccccc1)N1CCN(c2ccc(F)cc2)CC1,-16.1
15,CCn1c(C(C)NC(=O)c2ccccc2C)n[nH]c1=S (centres unmarked),10.8
16,CCCCCCSc1nc(O)c(C2OC(=O)c3c2ccc(OC)c3OC)c(=O)n1-c1ccccc1 (centres unmarked),16.8
17,O=C(Nc1sc2c(c1C(=O)NC1CC1)CCCCCC2)c1ccco1,-9.32
18,Cc1cccc(C)c1NC(=O)C(c1cccs1)N(Cc1ccco1)C(=O)Cn1nnc2ccccc21 (centres unmarked),14.4
19,Cc1cc(NC(=O)c2cccc(S(=O)(=O)N3CCCCCC3)c2)no1,11.7
20,CC(=O)Nc1ccc(C(=O)N/N=C/c2ccncc2)cc1,0.536
21,COc1ccc(-n2c(SCC(=O)NCC3CCCO3)nc3c(c2=O)SC(C)C3)cc1 (centres unmarked),-25.9
22,O=C1OCCC1Sc1nc2ccccc2c(=O)n1-c1ccc(F)cc1 (centres unmarked),8.7

row,SMILES,"hERG current change (%, negative = inhibition) at 10uM [%]"
1,O=C(NCCN1CCCCC1)c1cc(OCC(F)(F)F)ccc1OCC(F)(F)F,-39.5
2,Cc1ccc(/C=C(\NC(=O)c2ccccc2)C(=O)NCC2CCCO2)o1 (centres unmarked),-5.4
3,COC(=O)C1C(O)=C(C=Nc2cccc3ccccc23)C(=O)CC1(C)C (centres unmarked),-2.34
4,Cc1nn(-c2ccccc2)c(C)c1/C=C/C(=O)OCC(=O)N(C)C1CCS(=O)(=O)C1 (centres unmarked),4.46
5,CC(C)(O)C(=O)NNC(=S)Nc1cccc(C(F)(F)F)c1,19.7
6,COc1ccc(CCNC(=O)CCCn2nc(C)n3ccnc3c2=O)cc1OC,-14.2
7,CCC(C)N(C(=O)COC(=O)c1ccc(=O)n(Cc2ccccc2)n1)C1CCS(=O)(=O)C1 (centres unmarked),-24.3
8,Nc1nc(CSc2ncccn2)nc(Nc2ccccc2)n1,1.55
9,COc1cccc(CNC(=O)Cc2nc3nc(C)cc(C)n3n2)c1,-3.48
10,O=C1OCCC1Sc1ncnc2sccc12 (centres unmarked),-14.2
11,CCOC(=O)C1=NN(c2ccccc2)C2=NC(C)=C(C(=O)OC)C(c3cccs3)N12 (centres unmarked),-5.66
12,Cc1cc(C)cc(C(=O)NC(=S)Nc2ccc3[nH]c(=O)[nH]c3c2)c1,7.87
13,CC(Cl)C(=O)Nc1c2c(nn1-c1ccccc1)CSC2 (centres unmarked),1.56
14,COc1ccc(CCNC(=O)C2CCN(C(=O)c3ccc(OC)c(OC)c3)CC2)cc1,4.54
15,Cc1cc(=O)oc2cc(OCC(=O)N3CCc4ccccc4C3)ccc12,-24.5
16,O=C([C@H](O)c1ccccc1)N1CCC[C@H]1CO,8.33
17,COC(=O)CSC1=NN1c1cc(C)nc(N)n1,-4.21
18,COc1ccc(S(=O)(=O)Nc2cccnc2)c(Cl)c1Cl,2.65
19,CC1(C2CC2)NC(=O)N(CC(=O)Nc2ccccc2-c2ccccc2)C1=O (centres unmarked),22.5
20,CC(C)CN(C(=O)c1cc(Cl)nc2ccccc12)c1c(N)n(Cc2ccccc2)c(=O)[nH]c1=O,5.45
21,CCOc1cccc(/C=N/N2C(C)CCCC2C)c1O (centres unmarked),10.9
22,O=C(N/N=C\c1cn[nH]c1-c1ccccc1)c1cccnc1,-1.27
